# PubChem BioAssay AID1347073 (National Center for Advancing Translational Sciences (NCATS), 2019)
# Hit rate of the full screen: of about 45,000 compounds, about 200 (0.44%) were called active. Inconclusive results (about 7%) are left out. Calls follow the shape of the dose curve; as a rule, active = well fitted activation curve with a large enough effect; inconclusive = small, poorly fitted or top-dose-only effect; inactive = no such curve, though single readings can be large or run the other way. The list shows a part of the results.
# Test: qHTS of TDP-43 Inhibitors: NCGC Sytravon Library Screen; also: 0% is about no effect; nearly all actives have a fitted effect of over 55% in size
# Settings: yeast TDP-43 toxicity rescue, BacTiter-Glo growth, 24 h; series mostly up to 46.1 µM; growth rescue (activation): at the top concentration
# Outline: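 TDP-43-expressing yeast, pregrown in raffinose, seeded at OD600 0.02 in galactose medium with compound for 24 hr at 30 deg C. Growth read by BacTiter-Glo luminescence, so rescue of toxicity appears as activation.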
row,Compound,growth rescue (activation)
1,CC(=O)Nc1cccc(-c2ccnc3c2CC(C(=O)NCc2ccc(N(C)C)cc2)O3)c1 (configuration not stated),inactive: -1.43%
2,COc1ccc(/C(O)=C2/C(=O)C(=O)N(CC3CCCO3)C2c2ccc(O)c(OC)c2)cc1 (configuration not stated),inactive: -2.9%
3,Cc1cc(C)c2c(=O)[nH]c(SCC(=O)Nc3cccc(S(=O)(=O)N(C)C)c3)nc2n1,inactive: 26.5%
4,COc1ccc(OC)c(N/C=C/C(=C(C#N)C#N)N(C)C)c1,inactive: 1.29%
5,CCCSc1nc2sc3c(c2c(=O)[nH]1)CC(C)CC3 (configuration not stated),inactive: 10%
6,Cc1ccc2c(c1)C1C[N+](C)(CC(=O)c3ccccc3)CCC1N2C(=O)c1ccccc1Cl (configuration not stated),inactive: 28.3%
7,COCCNC(=S)N/N=C(\C)CCc1ccc2c(c1)OCO2,inactive: 11.7%
8,COc1ccc(/C=C/C(=O)Nc2ccc(S(=O)(=O)Nc3cc(C)nc(C)n3)cc2)cc1OC,inactive: 15%
9,CN1CCN(NC(=O)c2cccc(C(F)(F)F)c2)CC1,inactive: 21.7%
10,Cc1cc(C(=O)NCCc2ccc(Cl)cc2)n(-c2ccccc2)n1,inactive: -4.61%
11,CCOC(=O)C1(C(F)(F)F)N=C(C(F)(F)F)Nc2cc(C)c(C)cc21 (configuration not stated),inactive: 2.95%
12,OCCCCNCc1ccc(OCc2ccccc2)cc1,inactive: 13.6%
13,CC(C)OC(=O)c1ccc(COC(=O)CNC(=O)c2ccco2)cc1,inactive: 19%
14,COc1ccc(CNC(=O)c2cc3cccc(OC)c3oc2=N)cc1,inactive: 16.3%
15,O=C(/C=C/c1c(Cl)nc2ccccn12)Nc1ccc(F)cc1,inactive: 4.46%
16,CC(C)(C)c1ccc(OCC(=O)NN2Cc3ccccc3C2=N)cc1,inactive: 5.53%
17,COc1ccccc1N1CCN(c2ccc(Cl)nn2)CC1,inactive: 19.5%
18,CCOC(=O)Cc1csc(NC(=S)NC(=O)c2cccc([N+](=O)[O-])c2)n1,inactive: -9.08%
19,Cc1ccc(-c2ccc(CCC(=O)O)n2NC(N)=S)cc1,inactive: 6.36%
20,Cc1nn(Cc2ccccc2)c(C)c1NC(=O)CCCn1nc([N+](=O)[O-])cc1C,inactive: -2.15%
21,O=C(O)c1cccc(-c2nc3ccccc3[nH]2)c1,inactive: -21.7%
22,N#C/C(=C/c1ccc(Br)s1)C(=O)NCCc1c[nH]c2ccccc12,inactive: 1.43%

row,Compound,growth rescue (activation)
1,O=C(Cc1ccccc1)N1CCNCC1,inactive: 2.21%
2,Cc1cc2oc(=O)cc(CNc3ccccc3F)c2cc1O,inactive: -2.41%
3,CC(=O)c1ccc(N2Cc3ccccc3/C2=N\C(=O)Nc2ccc(Cl)cc2)cc1,inactive: 14.6%
4,Cc1ccc(NC(=O)CSc2nnc3ccccn23)cc1S(=O)(=O)N1CCOCC1,inactive: 0.896%
5,CCOc1cccc(OCCNC2CCCC2)c1,inactive: -37.4%
6,Cc1ccccc1S(=O)(=O)NC(=O)C1(C)CCN1C(=O)CCc1ccc(Cl)cc1Cl (configuration not stated),inactive: 13.4%
7,CN(C)c1cccc(C(=O)OCc2cc(=O)oc3cc(O)ccc23)c1,inactive: 35.4%
8,Cc1ccccc1C(=O)Oc1cc(N)n(S(C)(=O)=O)n1,inactive: 14.9%
9,Cn1cnc(S(=O)(=O)N2CCCCC2c2cc(C(=O)Nc3ccccc3Cl)no2)c1 (configuration not stated),inactive: 2.27%
10,O=C(c1ccc2c(c1)N(Cc1ccccc1)C(=O)c1ccccc1S2(=O)=O)N1CCOCC1,inactive: 16.2%
11,CCN(C(=O)c1cccs1)c1nc(-c2ccc(OC)cc2)cs1,inactive: 1.72%
12,COC(=O)Cc1ccc(OC2(C)CCN(Cc3ccc(-c4ccccn4)cc3)C2)cc1 (configuration not stated),inactive: -5.86%
13,Cc1nn2c(=O)c(NC(=O)c3ccc(Cl)cc3)cnc2s1,inactive: 0.165%
14,CC(C)(C)c1cc(C(=O)N/N=C/c2ccccc2O)n(-c2ccccc2)n1,inactive: -3.7%
15,Cc1nc2sc(C(c3ccc(F)cc3)N3CCN(C(=O)c4ccco4)CC3)c(O)n2n1 (configuration not stated),inactive: 8.21%
16,Cc1ccc(C)c2[nH]c(=O)c(CN(CCN3CCCC3)C(=O)Nc3ccc(F)cc3)cc12,inactive: -19.9%
17,O=C(COc1ccc(S(=O)(=O)N2CCCC2)cc1)N1CCCC1,inactive: 19.7%
18,Cc1nnc(NC(=O)CSc2n[nH]c(-c3ccccc3C)n2)s1,inactive: -6.66%
19,COc1ccc(CCNC(=O)c2cccc(-n3cnnn3)c2)cc1,inactive: 9.49%
20,COC(=O)c1sccc1NC(=O)c1ccncc1,inactive: 14.9%
21,COc1ccc(N=C2SC(C(=O)Nc3ccc4c(c3)OCO4)CC(=O)N2C)cc1 (configuration not stated),inactive: 19.7%
22,COc1cc(NC(=O)COC(=O)/C=C/c2c(C)nn(-c3ccc(F)cc3)c2Cl)cc(OC)c1,inactive: 3.48%

row,Compound,growth rescue (activation)
1,CCOc1ccc(CCNC(=O)CN2C(=O)CCSc3ccccc32)cc1,inactive: 13.1%
2,COc1ccc(Cc2nnc(N/N=C/c3ccc(O)cc3)[nH]c2=O)cc1OC,inactive: 5.61%
3,Cc1ccc(NC(=O)CN2C(=O)N/C(=C\c3cccnc3)C2=O)cc1,inactive: 12.8%
4,Nc1nc2cc(S(=O)(=O)N3CCOCC3)ccc2o1,inactive: -7.64%
5,COc1cccc2cc(C(C)N(CCCN3CCOCC3)C(=O)Nc3ccccc3)oc12 (configuration not stated),inactive: 8.26%
6,CC(NC(=O)COC(=O)Cc1ccsc1)c1ccccc1 (configuration not stated),inactive: 23.2%
7,N#Cc1ccc(COC(=O)CN2C(=O)NC3(CCCC3)C2=O)cc1,inactive: -3.56%
8,CC(=O)c1ccc(OCCOc2ccc(Cl)c3cccnc23)cc1,inactive: -1.51%
9,CCCCN(CC)CCCNC(=O)c1cc2cc3ccc(C)cc3nc2o1,inactive: -2.1%
10,Nc1nonc1-n1nnc(C(=O)N/N=C/c2ccc(Cl)cc2Cl)c1CN1CCCCC1,inactive: -4.49%
11,CN1CCN(C(=O)CCN2C(=O)/C(=C/c3ccccc3Cl)SC2=S)CC1,inactive: 7.4%
12,O=C1N/C(=N/S(=O)(=O)c2ccccc2)S/C1=C/c1cccnc1,inactive: 7.47%
13,CC(C)CNC(=O)CSc1nnc(-c2ccc(Cl)cc2)n1N,inactive: -5.41%
14,CCOC(=O)C1(C)CCCN1C(=O)c1cncc(Br)c1 (configuration not stated),inactive: 6.74%
15,COc1ccc(-n2ncc3c(N4CCN(Cc5ccccc5)CC4)ncnc32)cc1,inactive: 3.16%
16,COC(=O)CSc1nc(NCc2ccccc2)nc(N(C)C)n1,inactive: 7.97%
17,CCOc1ccc(C(=O)NCCC2=CCCCC2)cc1OCC,inactive: 13.7%
18,COc1ccc(CN2CCNC(=O)C2CC(=O)NCc2cn3ccc(C)cc3n2)c(OC)c1 (configuration not stated),inactive: -14.1%
19,CCOc1ccc(NC(=S)N(C)C)cc1,inactive: 2.07%
20,COC(=O)c1cc(NS(=O)(=O)c2ccc(NC(C)=O)cc2)ccc1Cl,inactive: 24.4%
21,COc1ccc(CN2CCNC(=O)C2CC(=O)NC2CCOCC2)c(F)c1 (configuration not stated),inactive: 8.49%
22,COc1ccc2c(c1)NC(c1cc(Cl)cc(Cl)c1O)c1cccn1-2 (configuration not stated),inactive: 3.79%

row,Compound,growth rescue (activation)
1,Cc1cc(=O)c(C(=O)Nc2ccc(N3CCOCC3)cc2N2CCOCC2)nn1-c1ccccc1Cl,inactive: -2.17%
2,O=C(NNC(=S)Nc1ccc(Cl)cc1Cl)C1CC1,inactive: 15.3%
3,Cc1ccc(OCC(=O)N/N=C2/SCC(=O)N2Cc2ccco2)cc1,inactive: 2.64%
4,CC(=O)NCCC(=O)Nc1nc2ccc(Oc3ccccc3)cc2s1,inactive: -4.1%
5,Clc1ccc(C2Nc3cccc4cccc(c34)N2)c(Cl)c1,inactive: 25.7%
6,COc1ccc(CCN2C(=O)N(c3ccc(OC)cc3)C(=O)C2CC(=O)Nc2ccc(OC)cc2)cc1 (configuration not stated),inactive: 28.1%
7,Cc1ccc(S(=O)(=O)NCC(=O)Nc2ccc3c(c2)OCO3)cc1,inactive: 5.13%
8,N#Cc1ccc(CN2CCN(C(=O)CC(NC(=O)c3ccccc3)c3ccccc3)CC2)cc1 (configuration not stated),inactive: 1.49%
9,CCn1c(CC(=O)Nc2ccc(F)cc2)nnc1SCC(=O)N1CCOCC1,inactive: 9.82%
10,Cc1ccc(/C=C2\SC(=S)N(CCCC(=O)Nc3nccs3)C2=O)cc1,inactive: 6.99%
11,CCCC(c1nnnn1CC1CCCO1)N1CCN(c2ccccc2)CC1 (configuration not stated),inactive: 11.8%
12,CN1CCN(NC(=S)Nc2ccc(Oc3ccccc3)cc2)CC1,inactive: -3.43%
13,CCOC(=O)c1sc(/N=C/c2ccc(O)cc2O)cc1C,inactive: 0.449%
14,Cc1ccc(NC(=O)c2ccc(CN3CCc4ccccc4C3)cc2)cc1,inactive: 20.5%
15,O=C(NCc1cccnc1)c1cc(Cl)ccc1[N+](=O)[O-],inactive: 13.9%
16,COc1ccc(CCNC(=O)C/C(C)=N/NC(=O)C2CCCCC2)cc1OC,inactive: 1.1%
17,CN1CCC(=NNC(=O)CN(c2ccc([N+](=O)[O-])cc2)S(=O)(=O)c2ccccc2)CC1,inactive: 10.3%
18,CC(=O)Nc1sc(C)c(C)c1C(=O)OCC(=O)N(CC(C)C)C1CCS(=O)(=O)C1 (configuration not stated),inactive: -5.84%
19,CCOC(=O)CC1C(=O)NCCN1S(=O)(=O)c1ccc(C)cc1 (configuration not stated),inactive: 0.0686%
20,CC/C(C)=N/NS(=O)(=O)c1ccc(C)c([N+](=O)[O-])c1,inactive: -0.617%
21,CCOC(=O)c1ccc(NNC(C)=O)c([N+](=O)[O-])c1,inactive: 15.1%
22,Cc1ccc(-n2ncc(C(=O)Nc3ccc(Cl)cc3)c2C2CCNCC2)cc1C,inactive: 4.04%

row,Compound,growth rescue (activation)
1,Cc1onc(-c2ccccc2)c1C(=O)OCC(=O)Nc1cc(S(=O)(=O)N2CCOCC2)ccc1Cl,inactive: 4.67%
2,CC(=O)Nc1ccc2c(c1)CN(c1cc(C)ccc1C)CO2,inactive: -1.88%
3,Cc1ccc(S(=O)(=O)NCC(c2ccccc2)N2CCCCC2)cc1 (configuration not stated),inactive: 25.2%
4,COc1ccc(/C=N/NC(=O)c2ccc(CN3C(=O)c4cccc5cccc3c45)cc2)cc1O,inactive: 17.1%
5,O=C(NCc1ccc(Cl)cc1)C1CCN(S(=O)(=O)c2ccc(F)cc2)CC1,inactive: 3.19%
6,CCN1CCN(c2ncnc3scc(-c4ccc(C)c(C)c4)c23)CC1,inactive: 1.16%
7,C=CCn1c(N)cc(=O)nc1SCC(=O)Nc1ccc(C(=O)OCC)cc1,inactive: 6.68%
8,Cc1ccc(C(=O)N/C(=C\c2cccnc2)C(=O)N2CCCC2)cc1,inactive: -40.6%
9,CCN(CC1CCCO1)C(=O)c1cc(COc2ccc(F)cc2F)on1 (configuration not stated),inactive: 20.9%
10,COc1cccc(/C=N\NC(C)=O)c1OC/C=C/c1ccccc1,inactive: -0.591%
11,CCCn1c(N)c(C(=O)CSc2nnc(C3CC3)n2C2CC2)c(=O)[nH]c1=O,inactive: 10.1%
12,COc1ccccc1C(=O)OCC(=O)NC(=O)NCc1ccccc1,inactive: 5.86%
13,Cc1nc2cc(C(=O)NCc3cccnc3)ccc2n1-c1ccc(F)cc1F,inactive: 8.94%
14,CCCCOc1ccc(C(=O)Nc2sc3c(c2C(=O)OCC)CCCCC3)cc1,inactive: 1%
15,Cc1nc(C)n(C(C)CNS(=O)(=O)c2ccc(Cl)cc2)n1 (configuration not stated),inactive: 7.97%
16,Cc1ccc(NC(=O)CC2(CC(=O)O)CCCC2)c(C)c1,inactive: -3.25%
17,O=C(NCc1ccco1)/C(=C/c1ccc(Cl)cc1)NC(=O)c1ccco1,inactive: -1.31%
18,CCOc1ccccc1CNCc1ccc(C(=O)O)cc1,inactive: 2.77%
19,C/C(=N\NS(=O)(=O)c1ccccc1)c1ccc2c(c1)OCO2,inactive: 13.5%
